Test results: patent US20230416410A1

Biological target: Fc gamma receptors on bovine alveolar macrophages
Assay: cell-based or functional assay

ADCP EC50 Value [µg/mL] | Binder
0.002 | CTLA4 Fc bIgG1aWin (Fc fusion, canine) [sequence of about 120 residues not given]DPRCKTTCDCCPPPEAAGAPSVFIFPPKPKDTLTISGTPEVTCVVVDVGHDDPEVKFSWFVDDVEVNTATTKPREEQFNSTYRVVSALRIQHQDWTGGKEFKCKVHNEGLPAPIVRTISRTKGPAREPQVYVLAPPQEELSKSTVSLTCMVTSFYPDYIAVEWQRNGQPESEDKYGTTPPQLDADGSYFLYSRLRVDRNSWQEGDTYTCVVMHEALHNHYTQKSTSKSAGK
0.041 | CTLA4 Fc bIgG1aWinSS (Fc fusion, canine) [sequence of about 120 residues not given]DPRCKTTCDCCPPPEAAGAPSVFIFPPKPKDTLTISGTPEVTCVVVDVGHDDPEVKFSWFVDDVEVNTATTKPREEQFNSTYRVVSALRIQHQDWTGGKEFKCKVHNEGLPSSIVRTISRTKGPAREPQVYVLAPPQEELSKSTVSLTCMVTSFYPDYIAVEWQRNGQPESEDKYGTTPPQLDADGSYFLYSRLRVDRNSWQEGDTYTCVVMHEALHNHYTQKSTSKSAGK
